Measured values from PubChem BioAssay AID445 (National Center for Advancing Translational Sciences (NCATS), 2006).
About 40 (0.04%) of roughly 110,000 compounds were called active. The inconclusive results got no clear call from the source; some entries with a clear call stand among them for comparison. The call rests on the fitted dose curve; in most records, active means well fitted curve in the direction sought with a large enough effect in the signal ratio (not every such curve was filed as active); inconclusive means small, poorly fitted or top-dose-only effect, or a change in a side signal; inactive means flat fitted curve, though single readings scatter; the % refers to the signal ratio. A potency beside an inconclusive call is a rough fit, not a confirmed value.
Potency means the concentration at half of the fitted maximal effect.

Experiment: IkB Signaling;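 on IkBa stabilization activation: 0% = basal untreated cells and 100% = reference inhibitor full response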
Details: ABC-DLBCL IkBa-CBG/CBR dual luciferase ratio (green luciferase fused to IkBa over red control in OCI-Ly3 lymphoma cells), 4 h; IkBa stabilization activation: at 57.1 µM (top of the series), scaled: untreated 0%, proteasome inhibitor 100% unless noted
Summary of the method: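 Luminescence ratio of IκBα-fused green versus native red beetle luciferase in OCI-Ly3 cells, 4 h post-doxycycline with compound; red signal alone, scaled from basal (0%) to zero light (-100%), flagged nonspecific or cytotoxic effects.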
In the case of `O=c1oc2ccc(F)cc2cc1-c1nc(-c2cccs2)no1`, the Potency is reported as inconclusive: 25.1 µM [signal inhibitor, single point].
In the case of `Cc1cc2nc(C3CCN(CC4COc5ccccc5O4)CC3)[nH]c2cc1C` (stereo not given), the IkBa stabilization activation is reported as inconclusive: 1.54% [signal inhibitor].
With `CCOc1ccc(NC(=O)c2oc(=O)c3ccccc3c2-c2ccc(C)cc2)cc1` the IkBa stabilization activation was inconclusive: -1.23% [signal inhibitor].
For `CCn1c2c(c(=O)n3ncc(C(=O)Nc4ccc(F)cc4Cl)c13)CN(Cc1ccc(OC)cc1)CC2`, the IkBa stabilization activation was inconclusive: -0.675% [signal inhibitor].
In the case of `S=C(c1ccc(N2CCOCC2)cc1)N1CCOCC1`, the IkBa stabilization activation is reported as “inactive”.
In the case of `CCC(C)COC(=O)C(C#N)c1nc2ccccc2nc1N1CCCCC1` (stereo not given), the IkBa stabilization activation is reported as “inactive”.
With `CCOc1ccc(-n2cc(-c3ccccc3)c3c(N4CCC(C)CC4)ncnc32)cc1` the IkBa stabilization activation was “inactive”.
In the case of `COc1ccc(-c2nnc(Nc3ccc(OC)c(C(N)=O)c3)c3ccccc23)cc1`, the Potency is reported as inconclusive: 15.8 µM [signal inhibitor, partial curve].
With `Cc1ccc(C2CC(c3cccc(Br)c3)Nc3nnnn32)cc1` (stereo not given) the IkBa stabilization activation was inconclusive: 0.72% [signal inhibitor].
With `CCc1ccc2oc(-c3cccc(NC(=O)C(C)(C)Oc4ccc(Br)cc4)c3)nc2c1` the Potency was inconclusive: 7.94 µM [signal inhibitor, partial curve].
For `Cc1cc(C)cc(Nc2ncnc3onc(-c4ccc(F)cc4)c23)c1`, the IkBa stabilization activation was inconclusive: 3.23% [signal inhibitor].
With `COc1cc(OC)cc(C(=O)N(Cc2nc(-c3cccc(C)c3)no2)C(C)C)c1` the IkBa stabilization activation was inconclusive: 3.22% [signal inhibitor].
For `CCOc1ccc(CNC(=O)c2cc3c(s2)-c2ccccc2OC3)cc1`, the IkBa stabilization activation was “inactive”.
In the case of `COc1cccc(-n2c(SCC(=O)N3CCCc4ccccc43)nc3c([nH]c4ccccc43)c2=O)c1`, the IkBa stabilization activation is reported as inconclusive: 0.659% [signal inhibitor].
In the case of `COc1cc(NC(=O)NC(C)c2c(-n3cccc3)sc3c2CCN(C)C3)cc(OC)c1` (stereo not given), the IkBa stabilization activation is reported as inconclusive: 3.78% [signal inhibitor].
In the case of `C=CCc1cccc(CNc2nc3ccccc3n2CC)c1O`, the IkBa stabilization activation is reported as inconclusive: 0.145% [signal inhibitor].
In the case of `CCc1ccc(S(=O)(=O)NCc2nc3cccnc3n2Cc2ccccc2Cl)cc1`, the IkBa stabilization activation is reported as “inactive”.
With `COc1ccc(Cl)cc1NC(=O)Cn1c(=O)n(CCCC(=O)NCCc2ccc(OC)c(OC)c2)c(=O)c2ccccc21` the IkBa stabilization activation was inconclusive: 2.59% [signal inhibitor].
With `Cc1ccc(N(CC(=O)Nc2ccc3c(c2)OCCO3)S(=O)(=O)c2c(C)noc2C)cc1` the IkBa stabilization activation was inconclusive: 1.24% [signal inhibitor].
With `COc1cccc(N2C(=O)CSC23C(=O)N(CC(=O)Nc2cccc(Cl)c2)c2ccccc23)c1` (stereo not given) the IkBa stabilization activation was “inactive”.
With `COc1cccc(-c2nn(C)c3sc(C(=O)N4CCN(c5ccccc5)CC4)cc23)c1` the IkBa stabilization activation was inconclusive: 1.82% [signal inhibitor].
With `CCOC(=O)Cc1csc(NC(=O)CSc2nnc(-n3nc(C)cc3C)c3ccccc23)n1` the IkBa stabilization activation was inconclusive: 2.32% [signal inhibitor].
With `CCn1c(C)c(C)c2cc(C(=O)N3CCN(c4cccc(C)c4C)CC3)ccc21` the IkBa stabilization activation was inconclusive: 2.28% [signal inhibitor].
In the case of `O=S(=O)(c1ccc(Cl)cc1)c1nnn2c1nc(NCc1cccs1)c1sccc12`, the IkBa stabilization activation is reported as “inactive”.
In the case of `COc1ccc(CC(=O)Nc2cc(-c3nc4cccnc4s3)ccc2C)cc1`, the IkBa stabilization activation is reported as “inactive”.
For `CCOC(=O)c1ccc(N2C(=O)c3n[nH]c(-c4cccs4)c3C2c2cccc(OC)c2)cc1` (stereo not given), the IkBa stabilization activation was inconclusive: 1.86% [signal inhibitor].
For `CN(C)S(=O)(=O)N(CC(=O)NCCSCc1cccc(Cl)c1)c1ccccc1`, the IkBa stabilization activation was inconclusive: 8.29% [signal inhibitor].
For `COc1ccc2nc(N3CCCC3)c(C#N)cc2c1`, the IkBa stabilization activation was “inactive”.
For `COc1ccc(C)cc1NC(=O)CSc1nc(=O)[nH]c2c1CCCC2`, the IkBa stabilization activation was inconclusive: 2.51% [signal inhibitor].
With `CCC1CN(S(=O)(=O)c2ccc3c(c2)NC(=O)CC(=O)N3)c2cc(Cl)ccc2O1` (stereo not given) the IkBa stabilization activation was inconclusive: 1.56% [signal inhibitor].
With `Cc1cccc(N2CCN(C(=O)CCC(=O)NNc3nc4ccccc4c4nc(C)nn34)CC2C)c1` (stereo not given) the IkBa stabilization activation was inconclusive: -0.0523% [signal inhibitor].
In the case of `CCNc1ncc2nc(CCc3ccccc3)c(=O)n(CCOC)c2n1`, the IkBa stabilization activation is reported as inactive: -2.48% [at 11.4 µM, scaled: untreated 0%, proteasome inhibitor 100%].
With `CCC(=O)O[C@@]1(C(=O)CCl)[C@@H](C)C[C@@H]2[C@H]3CCC4=CC(=O)C=C[C@@]4(C)[C@]3(F)[C@@H](O)C[C@@]21C` the IkBa stabilization activation was inconclusive: 13.3% [signal activator] [at 25.6 µM, scaled: untreated 0%, proteasome inhibitor 100%].
With `CC(=O)[C@]1(O)CC[C@@H]2[C@H]3C[C@@H](C)C4=CC(=O)CC[C@@]4(C)[C@H]3[C@@H](O)C[C@]21C` the IkBa stabilization activation was inconclusive: 8.69% [signal activator] [at 11.4 µM, scaled: untreated 0%, proteasome inhibitor 100%].
With `CCOc1ccc(CNCc2c(C(=O)O)n(Cc3ccc(OC)cc3)c3ccccc23)cc1` the IkBa stabilization activation was inconclusive: -2.62% [signal inhibitor].
With `COc1ccc(-c2nc3c(C#N)c[nH]n3c2NC2CCCC2)cc1` the IkBa stabilization activation was inconclusive: 1.53% [signal inhibitor].
For `CCOC(=O)C1CCN(C(C(=O)Nc2ccc3c(c2)OCCO3)c2ccccc2)CC1` (stereo not given), the IkBa stabilization activation was “inactive”.
In the case of `COc1ccc(S(=O)(=O)n2nc(-c3ccco3)nc2NCc2ccc(OC)c(OC)c2)cc1`, the IkBa stabilization activation is reported as “inactive”.
With `Cc1ccc(NC(=O)Cn2c(=O)n(CCCS(=O)(=O)C3CCCCC3)c(=O)c3ccccc32)cc1F` the IkBa stabilization activation was inconclusive: 8.13% [signal inhibitor].
For `O=S(=O)(c1ccccc1)N1CCC[C@@]2(CCN(c3cccc(-c4ccccc4)c3)C2)C1`, the IkBa stabilization activation was inactive: 2.29% [at 11.4 µM, scaled: untreated 0%, proteasome inhibitor 100%].
